# Source: publication PMC4336329 (PLoS ONE, 2015)
# Screen size: about 310,000 compounds; about 2,200 (0.71%) showed an effect of 50% or more. Effects have a minus sign here. This is one part of the list.
# Biological target: human ether-à-go-go-related gene (hERG) potassium channel (human, UniProt Q12809)
# Test: primary screen, population patch clamp on CHO cells stably expressing hERG
# human ether-à-go-go-related gene (hERG) potassium channel, sequence (Q12809 whole entry, looked up): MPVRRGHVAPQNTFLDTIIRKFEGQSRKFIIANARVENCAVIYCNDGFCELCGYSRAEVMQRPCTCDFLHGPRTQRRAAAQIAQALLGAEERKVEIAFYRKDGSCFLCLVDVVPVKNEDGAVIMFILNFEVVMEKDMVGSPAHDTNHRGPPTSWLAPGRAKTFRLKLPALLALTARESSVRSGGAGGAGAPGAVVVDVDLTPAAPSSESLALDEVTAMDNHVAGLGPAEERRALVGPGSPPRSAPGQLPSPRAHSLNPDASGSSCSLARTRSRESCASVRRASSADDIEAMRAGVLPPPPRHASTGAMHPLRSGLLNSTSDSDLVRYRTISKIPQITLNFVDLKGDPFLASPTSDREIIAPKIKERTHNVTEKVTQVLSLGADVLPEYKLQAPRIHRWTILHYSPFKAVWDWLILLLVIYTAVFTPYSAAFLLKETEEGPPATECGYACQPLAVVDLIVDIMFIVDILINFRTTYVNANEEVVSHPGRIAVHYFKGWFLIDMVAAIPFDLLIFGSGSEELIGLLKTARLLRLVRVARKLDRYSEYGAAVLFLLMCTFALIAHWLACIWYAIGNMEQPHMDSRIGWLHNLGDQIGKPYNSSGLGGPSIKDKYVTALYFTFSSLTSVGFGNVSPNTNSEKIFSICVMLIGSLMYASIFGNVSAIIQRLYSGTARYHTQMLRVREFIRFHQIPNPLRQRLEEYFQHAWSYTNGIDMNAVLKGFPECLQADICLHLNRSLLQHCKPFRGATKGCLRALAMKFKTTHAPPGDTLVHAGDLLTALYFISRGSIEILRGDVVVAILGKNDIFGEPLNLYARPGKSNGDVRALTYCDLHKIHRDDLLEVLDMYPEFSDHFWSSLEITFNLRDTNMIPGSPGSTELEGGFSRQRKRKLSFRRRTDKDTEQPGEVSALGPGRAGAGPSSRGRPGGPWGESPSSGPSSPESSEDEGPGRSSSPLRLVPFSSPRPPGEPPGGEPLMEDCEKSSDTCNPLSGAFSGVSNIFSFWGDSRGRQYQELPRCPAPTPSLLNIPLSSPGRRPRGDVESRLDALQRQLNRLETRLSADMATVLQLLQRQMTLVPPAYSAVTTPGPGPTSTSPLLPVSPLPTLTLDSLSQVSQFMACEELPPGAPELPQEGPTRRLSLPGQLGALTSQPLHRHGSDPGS
row,Compound,"hERG current change (%, negative = inhibition) at 1uM [%]"
1,COc1cccc(CNC(=O)COC(=O)c2cccc(S(=O)(=O)N3CCN(C(C)=O)CC3)c2)c1,3.2
2,CC(C)(C)NC(=O)CN(C(=O)CS(=O)CC(=O)Nc1ccc(F)cc1)c1ccc(F)c(Cl)c1 (stereo not drawn),0.265
3,CC(C)CC1(C)NC(=O)N(CC(=O)NC(=O)Nc2ccc3c(c2)OCCO3)C1=O (stereo not drawn),-0.0003
4,O=C(O)C(=O)O.O=S(=O)(c1ccc2ccccc2c1)N1CCN(Cc2ccccn2)CC1,7.9
5,CCOc1ccccc1NC(=S)N1CCN(c2ccccc2F)CC1,10.6
6,CC(=O)c1cccc(OCc2cc(C(=O)N(C)Cc3cnccn3)no2)c1,20.2
7,Cc1ccc(Cl)c(OC(=O)C2CSC3(C)CCC(=O)N23)c1 (stereo not drawn),11
8,CCOc1ccccc1C(=O)Nc1cccc(-c2nnc(-c3ccccc3)o2)c1,-2.48
9,CCOc1ccccc1-c1nc(-c2cc3ccc(C)cc3[nH]c2=O)no1,10.9
10,Cc1cc(C)c(C)c(OCC(=O)NCCN(C)C)c1,0.923
11,COc1ccc(N(CC(=O)NCCc2ccccc2)C(=O)CCC(=O)Nc2ccccn2)cc1,6.52
12,COc1ccc(CCN(C)C(=O)c2c(C)noc2C)cc1OC,14.5
13,COc1ccc(C(=O)NCCc2ccccc2)cc1[N+](=O)[O-],2.4
14,O=c1cccc2n1CC1CC2CN(CC(O)CN2CC3CC(C2)c2cccc(=O)n2C3)C1 (stereo not drawn),15.9
15,O=[N+]([O-])c1ccc(N2CCCCC2)c(-c2nn[nH]n2)c1,3.11
16,O=C(COC(=O)c1nn(-c2ccccc2)c(=O)c2ccccc12)NC1CCS(=O)(=O)C1 (stereo not drawn),6.46
17,COc1cccc(OCc2nnc(-c3cccs3)o2)c1,17.3
18,O=C(CSc1nnc(NC(=O)c2ccccc2[N+](=O)[O-])s1)NCC1CCCO1 (stereo not drawn),8.54
19,COc1ccc(NC2=CC(=O)CC(c3ccc(C)cc3)C2)c(OC)c1 (stereo not drawn),3.1
20,Clc1ccc(-c2nnc3sc(Cc4cccs4)nn23)cc1,12.8
21,COc1cccc(CN2CCN(c3cccc(C(F)(F)F)c3)CC2)c1OC,-0.184
22,CC(Oc1ccc(F)cc1)C(=O)Nc1ccc(S(=O)(=O)NC2=NCCCCC2)cc1 (stereo not drawn),8.82

row,Compound,"hERG current change (%, negative = inhibition) at 1uM [%]"
1,O=C1CCCc2c1cc(C(=O)NC1CCSC1=O)c(=O)n2-c1ccccc1 (stereo not drawn),11.6
2,C/C(=N\S(=O)(=O)c1ccc(C)cc1)N1CCN(S(=O)(=O)c2ccccc2)C1,-7.82
3,CN(C)N1C(N)=C(C#N)C(c2ccc(F)cc2)C2=C1CCCC2=O (stereo not drawn),4.83
4,COc1ccc(C(=O)Nc2cnn(Cc3c(F)cccc3Cl)c2)cc1OC,14.2
5,O=[n+]1c2c(n([O-])c3c1CCCC3)CCCC2,-0.299
6,CCCN1CCC(NC(=O)Nc2ccc(OC)c(OC)c2)CC1,8.14
7,CC1(C)CC(=O)C=C(c2ccc3ncccc3c2)C1,10.8
8,Cc1cccc(NC(=O)c2ccc(COc3cccc4ccccc34)o2)n1,8.61
9,COc1cc(NC2=CC(=O)CC(C)(C)C2)cc(OC)c1OC,-4.45
10,COC(=O)c1cc([N+](=O)[O-])ccc1N1CCN(Cc2ccccc2)CC1,-41.1
11,CCOc1ccc(C(C(=O)NCC2CCCO2)N(Cc2ccccc2)C(=O)c2snc(C(N)=O)c2N)cc1 (stereo not drawn),8.15
12,CC(=O)c1ccc(S(=O)(=O)Nc2ccc(-c3cn4c(n3)SCC4)cc2)cc1,-0.377
13,Cc1oc2c(c(C)cc3oc(=O)c(CC(=O)N[C@@H](CCCNC(N)=O)C(=O)O)c(C)c32)c1C,10.7
14,COc1cc(/C=N\Nc2ccc([N+](=O)[O-])cn2)ccc1OCC(=O)O,7.63
15,CN(CCO)c1cnccn1,11.3
16,CCOC(=O)C1CCN(C(c2ccc(OC)c(OC)c2)c2sc3nc(C)nn3c2O)CC1 (stereo not drawn),18.4
17,Cc1ccc(N(C(=O)c2csnn2)C(C(=O)NC2CCCCC2)c2ccccn2)cc1C (stereo not drawn),-5.94
18,Cc1nn(-c2ccccc2)c2c1C(c1cccnc1)N1C=C(S(=O)(=O)N3CCCCC3)C=CC1=N2 (stereo not drawn),14.3
19,Cc1c(/C(Cc2ccccc2)=N/O)c2ccccc2n1C,0.738
20,Cc1nc(Nc2ccc(O)cc2)c2c3c(sc2n1)CCCC3,4.26
21,COC(=O)c1ccc(OCC(=O)Nc2ccsc2C(=O)OC)cc1,4.45
22,O=c1[nH]c(SCc2ccccc2Cl)nc2c1CCCC2,5.36

row,Compound,"hERG current change (%, negative = inhibition) at 1uM [%]"
1,O=C(O)/C=C\c1cn(-c2ccccc2)nc1-c1cc2ccccc2o1,15.7
2,O=C1c2ccccc2C(=O)N1CCOc1ccccc1Cl,5.4
3,O=C(NC(c1ccccc1)c1cc(Cl)c2cccnc2c1O)c1cccnc1 (stereo not drawn),4.18
4,O=C(CCNS(=O)(=O)c1cccs1)NC1CCN(Cc2ccccc2)CC1,15.9
5,COc1cc(S(=O)(=O)NCc2ccccc2Cl)ccc1-n1cnnn1,8.28
6,Cc1nc2cc(C(=O)OCC(=O)Nc3cccc(Cl)c3)ccc2n1-c1ccccc1,2.97
7,O=C(CSc1nnc(-c2cccnc2)n1-c1ccccc1)Nc1ccc2c(c1)OCO2,-1.28
8,CC1CCC(NC(=O)c2ccc(COc3ccccc3)o2)CC1 (stereo not drawn),8.65
9,CCOC(=O)CCc1c(C)c(C#N)c2nc3ccccc3n2c1-n1ccnc1,-15.5
10,O=C(CCCNS(=O)(=O)c1cccs1)N1CCN(c2ccc(F)cc2)CC1,-13.2
11,COc1ccc(C(=S)N2CCN(C)CC2)cc1,-1.07
12,CC(=O)C(Cc1ccccc1)NC(=O)CN1CCN(Cc2ccccc2)CC1 (stereo not drawn),1.93
13,Cc1ccc(S(=O)(=O)N2CCC(=O)N(C(COCc3ccccc3)C(C)C)CC2)cc1 (stereo not drawn),3.6
14,O=c1[nH]c(/C=C\c2cccc(Cl)c2)nc(O)c1[N+](=O)[O-],13.6
15,CC1CC(C)CN(CCCNC(=O)c2ccc(CS(=O)(=O)Cc3ccccc3F)o2)C1 (stereo not drawn),-1.31
16,Cc1ccc(NC(=O)C(OC(=O)c2ccc(C=O)cc2)c2ccccc2)cc1Cl (stereo not drawn),-1.36
17,CCn1ccc2cc(OC)ccc2c1=S,17.4
18,COc1ccc(NC(=O)CSc2ncnc3c2nnn3-c2ccc(F)cc2)c(OC)c1,3.61
19,Nc1nonc1-n1nnc(C(=O)N/N=C\c2ccncc2)c1CN1CCCCC1,7.34
20,Cc1nc2ncnn2c(C)c1CCC(=O)NCCC1=CCCCC1,-14.9
21,Cc1ccccc1NC(=O)Cc1nc(COC(=O)c2cccc(C)c2O)cs1,-0.492
22,CC(NC(=O)c1cc2cc([N+](=O)[O-])ccc2oc1=O)C1CCCO1 (stereo not drawn),6.39

row,Compound,"hERG current change (%, negative = inhibition) at 1uM [%]"
1,Cc1cccc(N)c1-c1c(C)cccc1N,5.5
2,O=C(N(Cc1ccccc1)c1ccccn1)C12CC3CC(CC(C3)C1)C2,-7.1
3,CC(C)C(=O)Nc1cc2c(cc1C(=O)c1ccccc1)OCCO2,3.33
4,CCOC(=O)c1[nH]c2ccc(Br)cc2c1NC(=O)CNC,5.46
5,CNC(=O)[C@@H]1CCC(=O)N1,8.25
6,CCc1cc2c(=O)c(-c3nc4ccccc4n3C)c(C)oc2c(CN2CCN(C)CC2)c1O,14.2
7,Cc1noc2ncnc(Oc3ccc4ccccc4c3)c12,7.17
8,CCCCCN(C(=O)CCC(=O)OC(C)C(=O)NC1CCCCC1)c1c(N)n(CCCC)c(=O)[nH]c1=O (stereo not drawn),13.5
9,COc1ccc(C)cc1NC(=O)c1sc2nc(C)nc(N3CCOCC3)c2c1C,2.09
10,COc1cc([N+](=O)[O-])c(N2CCOCC2)c([N+](=O)[O-])c1OC,3.93
11,Cl.O=C(CN1CCCCCC1)Nc1cccc2c1OCO2,5.71
12,Cc1nc(-c2ccc(S(=O)(=O)Nc3ccc(S(N)(=O)=O)cc3)cc2)co1,20.3
13,O=C(O)[C@H](CSCc1ccccc1)NS(=O)(=O)c1ccc(F)cc1,9.02
14,COCc1cc(C)n(CC(=O)NCC2CCCO2)c(=O)c1C#N (stereo not drawn),13.8
15,O=C1COc2ccc(-c3csc(NCC4CCCO4)n3)cc2N1 (stereo not drawn),9.02
16,COC(=O)c1ccccc1NC(=O)NC1CCC(C)CC1 (stereo not drawn),5.25
17,COc1cccc(N2CCN(C(=O)c3c(C)nn(-c4ccccc4)c3C)CC2)c1,2.38
18,COc1ccc(NC(=O)C(=O)c2cn(CC(=O)N3CCCC3)c3ccccc23)cc1,10.4
19,Cc1cccc(CC(=O)Nc2cc(=O)n(C)c(=O)n2C)c1,10.8
20,CCN(CC(=O)Nc1ccc(NC(C)=O)cc1)C(=O)c1ccc(COc2ccccc2)o1,15.8
21,CC1(c2ccc3ccccc3c2)NC(=O)N(CC(=O)Nc2ncccc2O)C1=O (stereo not drawn),14.4
